{
  "source": "PubChem BioAssay AID686979",
  "about": "(National Center for Advancing Translational Sciences (NCATS), 2013)",
  "test": "qHTS for Inhibitors of human tyrosyl-DNA phosphodiesterase 1 (TDP1): qHTS in cells in presence of CPT; also: nearly all actives have a fitted effect of over 55% in size",
  "details": "chicken DT40 Tdp1-/-;hTDP1 cells + 20 nM CPT, ATP luminescence, 48 h",
  "procedure,_shortened": "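Chicken DT40 Tdp1-/- cells stably complemented with human TDP1 were seeded at 400 cells/well in medium containing 20 nM camptothecin, exposed to pin-transferred compounds, and grown at 37 °C for at least 48 hr. Viability was read as ATP luminescence.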",
  "key": {"[1]": {"details": "activity change, negative = growth inhibition: at 46.2 µM (top of the series)"}},
  "note": "Several values for one entry are separate records, joined by “and”; a condition that tells them apart may be missing. Equal entries are not always repeated. About 50,000 (12%) of roughly 420,000 compounds were called active. Inconclusive results, whose numbers are uncertain, are shown with a selection of clear calls. Calls follow the shape of the dose curve; as a rule, active = well fitted inhibition curve with a large enough effect; inconclusive = small, poorly fitted or top-dose-only effect; inactive = flat fitted curve, though single readings scatter. No potency is given beside an inconclusive call; the fits are too rough. % is scaled to controls: 0 for no effect and ±100 for the full control effect; potency is read from the fitted curve at half-maximal effect; tags tell the direction and shape of the fitted curve.",
  "data": [
    {"smiles": "CCN(CC)C(=O)C1=C(C)N(CCCOC)C(=O)C(CC(=O)NC(c2ccccc2)c2ccccc2)C1", "note": "(stereo not drawn)", "values": [
      {"measurement": "Potency", "setting": "[1]", "value": "active: 5.8 µM"}
    ]},
    {"smiles": "O=C(O)CSc1nnc(-c2cccnc2)n1Cc1ccccc1", "values": [
      {"measurement": "Potency", "setting": "[1]", "value": "inactive"}
    ]},
    {"smiles": "COc1c(Br)cc(Br)cc1/C=N/NC(=O)c1ccncc1", "values": [
      {"measurement": "Potency", "setting": "[1]", "value": "inconclusive [inhibitor, single point]"}
    ]},
    {"smiles": "Cc1nc(Cl)sc1C(=O)Nc1ccccc1", "values": [
      {"measurement": "Potency", "setting": "[1]", "value": "inactive"}
    ]},
    {"smiles": "CCCCN(CCCC)/C(N)=N/c1nc(C)cc(C)n1", "values": [
      {"measurement": "Potency", "setting": "[1]", "value": "active: 23.1 µM"}
    ]},
    {"smiles": "COC(=O)[C@]1(CC(C)C)N[C@H](c2ccc(SC3CCCCC3)c(OC)c2)[C@@H]2C(=O)N(C)C(=O)[C@@H]21", "values": [
      {"measurement": "Potency", "setting": "[1]", "value": "inconclusive [inhibitor, single point]"}
    ]},
    {"smiles": "CCCCN(C(=O)c1ccc(S(=O)(=O)N(C)C)cc1)c1ccccc1", "values": [
      {"measurement": "Potency", "setting": "[1]", "value": "inconclusive [inhibitor, single point]"}
    ]},
    {"smiles": "C[C@@H](NC(=O)[C@@H]1Cc2ccccc2CN1)C(=O)NC1CCCC1", "values": [
      {"measurement": "Potency", "setting": "[1]", "value": "inactive"}
    ]},
    {"smiles": "CCOC(=O)C1CCCN(Cc2cccc(Cl)c2)C1", "note": "(stereo not drawn)", "values": [
      {"measurement": "Potency", "setting": "[1]", "value": "inactive"}
    ]},
    {"smiles": "Cc1ccc(C(=O)N/C(=C\\c2cccs2)C(=O)NCCCn2ccnc2)cc1C", "values": [
      {"measurement": "Potency", "setting": "[1]", "value": "inactive"}
    ]},
    {"smiles": "CCOC(=O)C1(Cc2ccccc2)CCCN(Cc2ccncc2)C1", "note": "(stereo not drawn)", "values": [
      {"measurement": "Potency", "setting": "[1]", "value": "inconclusive [inhibitor, single point]"}
    ]},
    {"smiles": "O=C1c2ccccc2NC(c2cccc(O)c2)N1c1ccccc1", "note": "(stereo not drawn)", "values": [
      {"measurement": "Potency", "setting": "[1]", "value": "inconclusive [inhibitor, single point]"}
    ]},
    {"smiles": "O=C(NCC[C@@H]1CC[C@@H](NC(=O)c2cnccn2)[C@@H](CO)O1)c1ccc2c(c1)OCO2", "values": [
      {"measurement": "Potency", "setting": "[1]", "value": "inactive"}
    ]},
    {"smiles": "NC(=O)c1ccccc1OCC(=O)NC12CC3CC(CC(C3)C1)C2", "values": [
      {"measurement": "Potency", "setting": "[1]", "value": "inconclusive [inhibitor, partial curve]"}
    ]},
    {"smiles": "CCC(=O)N1CCc2cc(Br)cc(S(=O)(=O)NCCN3CCCC3)c21", "values": [
      {"measurement": "Potency", "setting": "[1]", "value": "inactive"}
    ]},
    {"smiles": "NC(=O)N1c2ccccc2C=Cc2ccccc21", "values": [
      {"measurement": "Potency", "setting": "[1]", "value": "inconclusive [inhibitor, single point]"},
      {"measurement": "activity change, negative = growth inhibition", "setting": "[1]", "value": "inconclusive: -37.6% [inhibitor]"},
      {"measurement": "activity change, negative = growth inhibition", "setting": "at 46.2 µM (top of the series)", "value": "inactive: 5.69% and inactive: 5.39%"}
    ]},
    {"smiles": "Cc1cccc(-n2ncc3c(NCCc4ccc(S(N)(=O)=O)cc4)ncnc32)c1", "values": [
      {"measurement": "Potency", "setting": "[1]", "value": "active: 29.1 µM"}
    ]},
    {"smiles": "Cc1nn(-c2ccccc2)c(Cl)c1/C=C/C(=O)c1ccc(O)cc1", "values": [
      {"measurement": "Potency", "setting": "[1]", "value": "inactive"}
    ]},
    {"smiles": "Cc1ccc(-c2noc(CNC(=O)c3ccc(C)c(Cl)c3)n2)cc1", "values": [
      {"measurement": "Potency", "setting": "[1]", "value": "inconclusive [inhibitor, single point]"}
    ]},
    {"smiles": "Cc1cccc(C(=O)N(CC(=O)Nc2sc(C)c(C)c2C(N)=O)C2CCCC2)c1", "values": [
      {"measurement": "Potency", "setting": "[1]", "value": "inconclusive [inhibitor, single point]"}
    ]},
    {"smiles": "C=CCn1c(SC(C)C(=O)NCc2ccc3c(c2)OCO3)nnc1C1CCCCC1", "note": "(stereo not drawn)", "values": [
      {"measurement": "Potency", "setting": "[1]", "value": "inconclusive [inhibitor, single point]"}
    ]},
    {"smiles": "Cc1ccc2cccnc2c1N", "values": [
      {"measurement": "Potency", "setting": "[1]", "value": "inactive"}
    ]},
    {"smiles": "NS(=O)(=O)c1ccc(N/N=C/c2ccc(O)cc2O)c([N+](=O)[O-])c1", "values": [
      {"measurement": "Potency", "setting": "[1]", "value": "inconclusive [inhibitor, single point]"}
    ]},
    {"smiles": "COc1ccc(-c2ccc(-c3noc(-c4cccs4)n3)c(OC)n2)cc1", "values": [
      {"measurement": "Potency", "setting": "[1]", "value": "inconclusive [inhibitor, single point]"}
    ]},
    {"smiles": "CCOC(=O)c1cc(NCc2cccs2)ccc1N1CCOCC1", "values": [
      {"measurement": "Potency", "setting": "[1]", "value": "inactive"}
    ]},
    {"smiles": "O=C(CCN1C(=O)c2ccccc2C1=O)N1CCN(c2ccccn2)CC1", "values": [
      {"measurement": "Potency", "setting": "[1]", "value": "inactive"}
    ]},
    {"smiles": "CCCOc1ccc(C2C(=O)N(C3CCC(C)CC3)CC(=O)N2CCc2ccccc2)cc1OC", "note": "(stereo not drawn)", "values": [
      {"measurement": "Potency", "setting": "[1]", "value": "inconclusive [inhibitor, partial curve, poor fit]"}
    ]},
    {"smiles": "O=[N+]([O-])C(=C1Nc2ccccc2N1)/C(Cl)=C(/Cl)Br", "values": [
      {"measurement": "Potency", "setting": "[1]", "value": "inconclusive [inhibitor, single point]"}
    ]},
    {"smiles": "CCN(CC)CCNCc1cc(Cl)c(OCC(=O)Nc2ccccc2)c(OC)c1", "values": [
      {"measurement": "Potency", "setting": "[1]", "value": "inconclusive [inhibitor, single point]"}
    ]},
    {"smiles": "COC(=O)C1=CN(c2ccc(F)cc2)C(N)=C(C#N)C1c1ccc(-c2ccccc2)cc1", "note": "(stereo not drawn)", "values": [
      {"measurement": "Potency", "setting": "[1]", "value": "active: 7.31 µM"}
    ]},
    {"smiles": "Cc1ccc(Cn2c(=N)c(C(=O)NCC3CCCO3)cc3c(=O)n4ccccc4nc32)cc1", "note": "(stereo not drawn)", "values": [
      {"measurement": "Potency", "setting": "[1]", "value": "inconclusive [inhibitor, single point]"}
    ]},
    {"smiles": "COc1ccc(N2CCN(C(=O)CSc3ncccc3-c3nc4ccccc4[nH]3)CC2)cc1", "values": [
      {"measurement": "Potency", "setting": "[1]", "value": "active: 18.4 µM"}
    ]},
    {"smiles": "CN1CCN(C(=O)CN(C2CCCCC2)S(=O)(=O)c2ccc(Br)cc2)CC1", "values": [
      {"measurement": "Potency", "setting": "[1]", "value": "inactive"}
    ]},
    {"smiles": "CCCN(CC(=O)Nc1ccccc1C)C(=O)c1ccc(N2CCCCC2)c([N+](=O)[O-])c1", "values": [
      {"measurement": "Potency", "setting": "[1]", "value": "inactive"}
    ]},
    {"smiles": "O=C(c1ccc2c(c1)OCO2)N1CCc2ccccc2C1", "values": [
      {"measurement": "Potency", "setting": "[1]", "value": "inconclusive [inhibitor, single point]"}
    ]},
    {"smiles": "Cc1cc(S(=O)(=O)NCc2cccnc2)ccc1F", "values": [
      {"measurement": "Potency", "setting": "[1]", "value": "inconclusive [inhibitor, single point]"}
    ]},
    {"smiles": "Cc1ccc(-n2c(C)cc(/C=C(\\C#N)C(=O)Nc3ccc(C)c(C)c3)c2C)cc1", "values": [
      {"measurement": "Potency", "setting": "[1]", "value": "inactive"}
    ]},
    {"smiles": "NC(Cc1ccc(C(F)(F)F)cc1)c1csc(NC(=O)Nc2ccccc2Cc2ccccc2)n1", "note": "(stereo not drawn)", "values": [
      {"measurement": "Potency", "setting": "[1]", "value": "inconclusive [inhibitor, single point]"}
    ]},
    {"smiles": "COc1ccc(NC(=O)C2(C)CCN2CCOc2ccc(C)cc2)cc1OC", "note": "(stereo not drawn)", "values": [
      {"measurement": "Potency", "setting": "[1]", "value": "inconclusive [inhibitor, single point]"}
    ]},
    {"smiles": "CC(=O)c1ccc(F)c(-c2cc(C)cc3c2OC(CNC(=O)Cc2c[nH]c4ccccc24)C3)c1", "note": "(stereo not drawn)", "values": [
      {"measurement": "activity change, negative = growth inhibition", "setting": "[1]", "value": "inactive: 11.9% [at 9.04 µM]"}
    ]},
    {"smiles": "COc1ccc(CC(C(=O)Nc2ccc(OC)cc2)c2nn[nH]n2)cc1", "note": "(stereo not drawn)", "values": [
      {"measurement": "Potency", "setting": "[1]", "value": "inactive"}
    ]},
    {"smiles": "Cc1nnc(NC(=O)c2ccc(S(=O)(=O)N3CCc4ccccc4C3)cc2)o1", "values": [
      {"measurement": "Potency", "setting": "[1]", "value": "inconclusive [inhibitor, single point]"}
    ]},
    {"smiles": "O=C(O)CC(CC(=O)Nc1ccc(-c2ccccc2)cc1)c1ccccc1", "note": "(stereo not drawn)", "values": [
      {"measurement": "Potency", "setting": "[1]", "value": "inactive"}
    ]},
    {"smiles": "CCN(CC)C(=O)C1=C(C)Nc2nc3ccccc3n2C1c1cccc(OC)c1", "note": "(stereo not drawn)", "values": [
      {"measurement": "Potency", "setting": "[1]", "value": "inconclusive [inhibitor, partial curve]"}
    ]},
    {"smiles": "CN1/C(=C\\C(=O)c2cccc([N+](=O)[O-])c2)Sc2ccccc21", "values": [
      {"measurement": "Potency", "setting": "[1]", "value": "inactive"}
    ]},
    {"smiles": "C/C(=N\\NC(=O)C1CC1)c1ccc(C(C)(C)C)cc1", "values": [
      {"measurement": "Potency", "setting": "[1]", "value": "inconclusive [inhibitor, single point]"}
    ]}
  ]
}
